Source: the DeepSol protein solubility set

Assay: soluble on expression in E. coli; label from the status in PepcDB or PDB records

Row | Sequence | soluble on expression in E. coli
1 | DVVMTQTPSSLAMSVGQKVTMSCKSSQSLLNISNQKNYLAWYQQKPGQSPKLLVYFASTRESGVPDRFIGSGSGTDFTLTISSVQAEDQADYFCQQHYRAPRTFGGGTKLEIK | soluble
2 | GEFKGLNVCQPTRFISRHNIEGIFTFVDHRCVATVGYQPQELLGKNIVEFCHPEDQQLLRDSFQQVVKLKGQVLSVMFRFRSKNQEWLWMRTSSFTFQNPYSDEIEYIICTNTNVKNSSQE | soluble
3 | HMKERPPPVPNPDYNSLKKGSLVKNLHMTEEVIVIAKWDYTAQQDQELDIKKNERLWLLDDSKTWWRVRNAANRTGYVPSNYVERK | soluble
4 | MAPTKKVPQVPETVLKRRKQRADARTKAAQHKVTVAAKNKEKKTQYFKRAEKYVQEYRNAQKEGLRLKREAEAKGDFYVPAEHKVAFVVRIRGINQLHPKPRKALQILRLRQINNGVFVKLNKATLPLLRIIEPYVAWGYPNNKTIHDLLYKRGYAKVDGNRVPITDNTIVEQSLGKFNIICLEDLAHEIATVGPHFKEATNFLWPFKLNNPTGGWTKKTNHFVEGGDFGNREDQINNLLRKMV | not soluble
5 | MDPIREGEVAHEGDSVYTLNDFTKLEKIGEGTYGVVYKGKNRRTNAMVAMKKIRLESEDEGVPSTAVREISLLKELQHPNVVGLEAVIMQENRLFLIFEFLSFDLKRYMDQLGKDEYLPLETLKSYTFQILQAMCFCHQRRVIHRDLKPQNLLVDNNGAIKLADFGLARAIGIPIRVYTHEVVTLWYRAPEILMGAQRYSMGVDMWSIGCIFAEMATKKPLFQGDSEIDELFRIFRVLGTPTELEWNGVESLPDYKATFPKWRENFLRDKFYDKKTGKHLLDDTAFSLLEGLLIYDPSLRLNAKKALVHPYFDNMDTSKLPAGNYRGELELF | not soluble
6 | MNSAAGFSHLDRRERVLKLGESFEKQPRCAFHTVRYDFKPASIDTSSEGYLEVGEGEQVTITLPNIEGSTPPVTVFKGSKKPYLKECILIINHDTGECRLEKLSSNITVKKTRVEGSSKIQYRKEQQQQQMWNSARTPNLVKHSPSEDKMSPASPIDDIERELKAEASLMDQMSSCDSSSDSKSSSSSSSEDSSSDSEDEDCKSSTSDTGNCVSGHPTMTQYRIPDIDASHNRFRDNSGLLMNTLRNDLQLSESGSDSDD | soluble
7 | MRGSGSMRGSGSMRPSMSGLHLVKRGREHKKLDLHRDFTVASPAEFVTRFGGDRVIEKVLIANNGIAAVKCMRSIRRWAYEMFRNERAIRFVVMVTPEDLKANAEYIKMADHYVPVPGGPNNNNYANVELIVDIAKRIPVQAVWAGWGHASENPKLPELLCKNGVAFLGPPSEAMWALGDKIASTVVAQTLQVPTLPWSGSGLTVEWTEDDLQQGKRISVPEDVYDKGCVKDVDEGLEAAERIGFPLMIKASEGGGGKGIRKAESAEDFPILFRQVQSEIPGSPIFLMKLAQHARHLEVQILADQYGNAVSLFGRDCSIQRRHQKIVEEAPATIAPLAIFEFMEQCAIRLAKTVGYVSAGTVEYLYSQDGSFHFLELNPRLQVEHPCTEMIADVNLPAAQLQIAMGVPLHRLKDIRLLYGESPWGVTPISFETPSNPPLARGHVIAARITSENPDEGFKPSSGTVQELNFRSSKNVWGYFSVAATGGLHEFADSQFGHCFSWGENREEAISNMVVALKELSIRGDFRTTVEYLINLLETESFQNNDIDTGWLDYLIAEKVQAEKPDIMLGVLEHHHHHHLEHHHHHH | soluble
8 | MVIVLPRKYGKASRKCSRCGDHSALVRRYGLMLCRQCFRELAPKIGFKKYN | not soluble
9 | SVQATREDKFSFGLWTVGWQARDAFGDATRTALDPVEAVHKLAEIGAYGITFHDDDLVPFGSDAQTRDGIIAGFKKALDETGLIVPMVTTNLFTHPVFKDGGFTSNDRSVRRYAIRKVLRQMDLGAELGAKTLVLWGGREGAEYDSAKDVSAALDRYREALNLLAQYSEDRGYGLRFAIEPKPNEPRGDILLPTAGHAIAFVQELERPELFGINPETGNEQMSNLNFTQGIAQALWHKKLFHIDLNGQHGPKFDQDLVFGHGDLLNAFSLVDLLENGPDGAPAYDGPRHFDYKPSRTEDYDGVWESAKANIRMYLLLKERAKAFRADPEVQEALAASKVAELKTPTLNPGEGYAELLADRSAFEDYDADAVGAKGFGFVKLNQLAIEHLLGAR | soluble
